# About 4,000 (1%) of roughly 390,000 compounds were called active. The shares of active, inactive and inconclusive entries below differ from those in the screen. Calls follow the shape of the dose curve; as a rule, active = well fitted inhibition curve with a large enough effect; inconclusive = small, poorly fitted or top-dose-only effect; inactive = no such curve, though single readings can be large or run the other way. Potencies of inconclusive entries are doubtful fits and often do not repeat.
# Biological target: Thioredoxin reductase 1, cytoplasmic (Rattus norvegicus) (UniProt O89049)
# Experiment: qHTS Assay for Inhibitors of Mammalian Selenoprotein Thioredoxin Reductase 1 (TrxR1): qHTS; also: nearly all actives have a fitted effect of over 65% in size
# Conditions: recombinant rTrxR1, NADPH fluorescence consumption, selenite substrate; series mostly up to 114 µM; activity change, negative = inhibition: at the top concentration
# Summary of the method: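 Rat TrxR1 (90 nM in the dispensed reagent) was pre-reduced with 400 uM NADPH for 5 min at room temperature, then incubated with compound for 15 min. After 400 uM selenite was added, NADPH fluorescence (Ex 340/Em 450 nm) was followed for 8 min.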
# % is scaled to controls: 0 for no effect and ±100 for the full control effect; potency is read from the fitted curve at half-maximal effect; tags tell the direction and shape of the fitted curve.
# UniProt O89049, sequence (O89049 whole entry, looked up): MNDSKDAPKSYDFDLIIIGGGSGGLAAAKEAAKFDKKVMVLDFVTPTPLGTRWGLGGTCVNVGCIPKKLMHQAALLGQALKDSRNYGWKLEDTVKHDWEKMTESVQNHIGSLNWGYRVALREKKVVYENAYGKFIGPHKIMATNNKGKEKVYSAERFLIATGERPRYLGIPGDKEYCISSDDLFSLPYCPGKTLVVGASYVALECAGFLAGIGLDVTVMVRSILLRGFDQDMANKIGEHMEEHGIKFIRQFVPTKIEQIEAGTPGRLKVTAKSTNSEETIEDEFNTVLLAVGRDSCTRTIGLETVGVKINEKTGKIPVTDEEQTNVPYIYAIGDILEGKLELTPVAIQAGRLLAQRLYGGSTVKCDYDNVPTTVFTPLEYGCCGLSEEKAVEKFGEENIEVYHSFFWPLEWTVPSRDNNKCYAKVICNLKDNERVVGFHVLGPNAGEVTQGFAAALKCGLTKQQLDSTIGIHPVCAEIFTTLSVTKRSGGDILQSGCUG
Structure (SMILES),"activity change, negative = inhibition",Potency
COc1ccc(C)cc1-n1nnnc1SCc1csc(C)n1,inactive: 26.4% [at 57.1 µM],
CCc1ccc(NC(=O)c2ccc3c(c2)C(=O)N(Cc2ccco2)C3=O)cc1,,"inconclusive: 56.2 µM [inhibitor, partial curve]"
C#CCOCCOCCOCCNc1nc(N2CCN(C(=O)[C@H]([C@@H](C)CC)n3cc([C@@H](N)CC(C)C)nn3)CC2)nc(N2CCN(C(=O)[C@H](Cc3cc4ccccc4[nH]3)n3cc([C@@H](N)Cc4ccc(O)cc4)nn3)CC2)n1,,"inconclusive: 70.8 µM [inhibitor, partial curve]"
COc1ccc(S(=O)(=O)N2Cc3ccccc3CC2C(=O)Nc2ccc(O)cc2)cc1OC (centres undefined),inactive: 8.91%,
COc1ccccc1NC(=S)N1CCN(C(c2ccccc2)c2ccccc2)CC1,,"inconclusive: 15.8 µM [inhibitor, partial curve, poor fit]"
COc1ccc(CC(=O)Nc2sc3c(c2C(=O)Nc2c(C)cccc2C)CCCCC3)cc1,inactive: 0.169%,
Cc1cc(-c2ccccc2)nc2c(Br)c(C(=O)O)nn12,,"inconclusive: 31.6 µM [inhibitor, partial curve, poor fit]"
COc1cccc(NC(=O)/C(C#N)=C\c2cn(Cc3ccc(Cl)cc3)c3ccccc23)c1,inactive: 3.1%,
O=c1cc(CN2CCN(Cc3ccccc3)CC2)c2ccc(O)cc2o1,,"inconclusive: 31.6 µM [inhibitor, partial curve]"
O=C(NNC(=S)NC(=O)c1sc2ccccc2c1Cl)c1ccc(Cl)cc1,,"inconclusive: 50.1 µM [inhibitor, partial curve]"
Cc1cc(C(F)F)n2nc(C(=O)Nc3ccc(F)c(Cl)c3)nc2n1,,"inconclusive: 89.1 µM [inhibitor, single point]"
Cc1cc(C)c2c(c1)/C(=N/Nc1ccc(S(N)(=O)=O)cc1[N+](=O)[O-])CCC2,inactive: -7.41%,
CCOc1ccc(/C=C2\SC(=S)N(CCC(=O)O)C2=O)cc1,inactive: 1.94%,
COc1ccc(C(=O)Nc2cc([N+](=O)[O-])ccc2N2CCCC2)cc1,,"inconclusive: 35.5 µM [inhibitor, single point]"
CN(C)c1nc(N)c2ncc(=S)[nH]c2n1,,"inconclusive: 3.16 µM [inhibitor, single point]"
Cc1cc(Cl)ccc1-n1c(-c2cccnc2)n[nH]c1=S,,"inconclusive: 1.41 µM [inhibitor, full curve, poor fit]"
CC(/C=C1\N=C(SCc2ccccc2Cl)SC1=O)=C\c1ccccc1,,"inconclusive: 0.447 µM [inhibitor, partial curve, poor fit]"
COc1ccc(NC(=S)Nc2cccc(S(=O)(=O)N3CCCCC3)c2)cc1,,"inconclusive: 7.08 µM [inhibitor, partial curve, poor fit]"
CC(C)CN(C(=O)c1ccc(N2CCCC2=O)cc1)c1c(N)n(Cc2ccccc2)c(=O)[nH]c1=O,,"inconclusive: 50.1 µM [inhibitor, partial curve, poor fit]"
COCC1CCN(C(=O)CCc2nnc(C3(c4ccc(Cl)cc4)CCC3)o2)CC1,inactive: -8.04%,
CC1CCCC(C)N1C(=O)COC(=O)c1ccc([N+](=O)[O-])o1 (centres undefined),,"inconclusive: 15.8 µM [inhibitor, partial curve, poor fit]"
COc1ccccc1N1CCN(C(=O)c2cn(Cc3ccccc3)nc2-c2cccnc2)CC1,,"inconclusive: 35.5 µM [inhibitor, partial curve]"

Structure (SMILES),"activity change, negative = inhibition",Potency
CCN1CCN(C(=S)Nc2cc(S(=O)(=O)N(CC)CC)ccc2C)CC1,,"inconclusive: 14.1 µM [inhibitor, full curve]"
CC1=CC(=C(c2ccc(N)cc2)c2ccc(N)cc2)C=CC1=N,inactive: -5.4%,
CCn1c(SCC(=O)N/N=C/C(C)=C\c2ccco2)nnc1-c1ccccc1,,"inconclusive: 70.8 µM [inhibitor, partial curve]"
O=C(COC(=O)/C=C/c1ccco1)NCc1ccccc1Cl,inactive: -16.6%,
CCOC(=O)NC1(C(F)(F)F)NC(=O)N(Cc2ccco2)C1=O (centres undefined),,"inconclusive: 35.5 µM [inhibitor, full curve]"
Cc1cccc(N2C(=O)CCSC23C(=O)N(Cc2ccc(F)cc2)c2ccccc23)c1 (centres undefined),inactive: 12.3%,
O=[N+]1C2=C(CCCC2)N([O-])C12CCCC2,,"inconclusive: 31.6 µM [inhibitor, partial curve, poor fit]"
COc1cccc(CN(C)C(=O)c2cc(S(=O)(=O)NC3CCCCC3)ccc2C)c1OC,inactive: -10.7%,
Cc1ccc(Nc2nc(N/N=C/c3c[nH]c4ccccc34)nc(N3CCOCC3)n2)cc1,inactive: -1.79%,
Cc1ccc(S(=O)(=O)c2nc(-c3ccc(Cl)cc3)oc2N2CCCCCC2)cc1,,"inconclusive: 35.5 µM [inhibitor, full curve]"
O=C(c1ccco1)N1CCN(C(=O)c2sccc2-c2ccccc2)CC1,,active: 15.8 µM
COc1ccc(CNc2ncnc3c2c(-c2ccccc2)cn3-c2ccccc2)cc1,inactive: 17.3% [at 57.1 µM],
CCC(C)(C)NC(=O)C(c1ccc(C)cc1)N(Cc1ccco1)C(=O)Cn1nnc2ccccc21 (centres undefined),inactive: -3.3%,
CC(/C=N/NC(=O)c1cccnc1)=C\c1ccco1,,"inconclusive: 35.5 µM [inhibitor, partial curve, poor fit]"
CC(/C=N/NC(=O)Cc1cccs1)=C\c1ccco1,,"inconclusive: 56.2 µM [inhibitor, single point]"
COC(=O)c1cc(S(=O)(=O)NC2CCCCC2)cn1C,,"inconclusive: 89.1 µM [inhibitor, single point]"
CCN(CC)S(=O)(=O)c1ccc2c(c1)NC(=O)C1CCCN21 (centres undefined),,"inconclusive: 35.5 µM [inhibitor, partial curve]"
Fc1ccccc1-n1[nH]nnc1=S,,"inconclusive: 70.8 µM [inhibitor, partial curve]"
Cc1ccsc1C(=O)NNC(=S)NC1CCCCC1,inactive: 2.3%,
O=C(N/N=C/c1ccc2cccc(OCc3ccccc3)c2n1)c1ccc(Br)cc1,inactive: 47% [at 57.1 µM],
COC(=O)/C(=C1/Oc2cc(C)oc(=O)c2S1)C(F)(F)F,,"inconclusive: 5.01 µM [inhibitor, full curve]"
NNc1nc(-c2ccccc2)c2cc(Cl)ccc2n1,inactive: 23.5% [at 57.1 µM],
